The whole screen tested about 110,000 compounds, of which about 230 (0.21%) showed an effect of 50% or more. The list shows a part of the results.
The compounds below were run against DPAP1 (Plasmodium falciparum, UniProt Q8IIJ9) (assay: primary screen, percent inhibition; read by cleavage of a fluorogenic dipeptide substrate; higher = more effect of the substance).
Design: species or system P. falciparum D10 trophozoite lysates; single well
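Note: 30 min substrate incubation versus DMSO and 10 µM JCP410 controls.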

DPAP1, sequence (Q8IIJ9 whole entry, looked up): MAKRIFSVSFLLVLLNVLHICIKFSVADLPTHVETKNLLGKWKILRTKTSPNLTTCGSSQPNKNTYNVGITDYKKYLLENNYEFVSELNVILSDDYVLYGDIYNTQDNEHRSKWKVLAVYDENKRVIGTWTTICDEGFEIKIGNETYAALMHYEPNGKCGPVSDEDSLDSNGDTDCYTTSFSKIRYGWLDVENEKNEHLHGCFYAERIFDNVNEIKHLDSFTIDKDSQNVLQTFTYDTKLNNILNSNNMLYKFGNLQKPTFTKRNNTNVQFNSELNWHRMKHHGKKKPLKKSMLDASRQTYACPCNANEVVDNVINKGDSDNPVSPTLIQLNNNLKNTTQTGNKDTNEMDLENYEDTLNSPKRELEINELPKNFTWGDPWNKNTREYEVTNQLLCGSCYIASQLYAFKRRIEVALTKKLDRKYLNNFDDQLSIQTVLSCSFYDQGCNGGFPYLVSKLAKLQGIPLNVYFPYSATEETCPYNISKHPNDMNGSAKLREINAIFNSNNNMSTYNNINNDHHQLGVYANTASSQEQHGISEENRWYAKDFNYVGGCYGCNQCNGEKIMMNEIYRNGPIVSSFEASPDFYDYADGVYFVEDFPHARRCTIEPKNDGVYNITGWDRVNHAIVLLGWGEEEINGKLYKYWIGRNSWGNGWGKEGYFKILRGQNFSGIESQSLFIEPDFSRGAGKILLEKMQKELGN

Going from C=C(C)c1cccc(C(C)(C)NC(=O)NC2CN3CCC2CC3)c1 (stereo not drawn) to CCOC(=O)N1CCC(NC(=O)c2cnn3c(C(F)(F)F)cc(-c4ccc(C)cc4)nc23)CC1, the “% Inhibition @ 10 uM” value falls from 1.03% to -6.13%.

First: CN(C)S(=O)(=O)c1ccc2c(c1)C(N1CCN(CCO)CC1)Cc1ccc(F)cc1S2 (stereo not drawn)
Second: COc1ccccc1N1C(=O)CC(N2CCN(Cc3ccc4c(c3)OCO4)CC2)C1=O (stereo not drawn)
The “% Inhibition @ 10 uM” value of the first is lower: -11.2% for the first, -4.89% for the second.

Compared with CCCCCC(=O)Nc1ncc2c(n1)CC(c1ccco1)CC2=O (stereo not drawn), CCCNC(=O)CCCn1nc(C)c2sc3ccccc3c2c1=O is lower in “% Inhibition @ 10 uM” value: 0.673% for the first, 0.39% for the second.

Compared with CCOC(=O)c1cc2c(=O)n3ccccc3nc2n(C(C)C)/c1=N\C(=O)CCc1ccccc1, CC(NC(=O)c1cc2ccccc2o1)c1ccccc1 (stereo not drawn) is lower in “% Inhibition @ 10 uM” value: 4.37% for the first, -6.06% for the second.

Compared with COc1ccc(C(C(=O)NC2CCCCC2)N2CCC3(CC2)OCCO3)cc1 (stereo not drawn), Cc1ccccc1Cc1c(C)nc2c(C(=O)N3CCC4(CC3)OCCO4)cnn2c1C is lower in “% Inhibition @ 10 uM” value: 2.06% for the first, -3.94% for the second.

Going from COc1ccc2nc3oc(C(=O)NC4CCCc5ccccc54)cc3cc2c1 (stereo not drawn) to COc1ccc(C2Nn3c(nnc3-c3ccccc3)SC2C(=O)NCC2CCCO2)cc1 (stereo not drawn), the “% Inhibition @ 10 uM” value falls from 0.208% to 0.0289%.

Going from CCOc1cc(Br)cc(C(c2c(C)n(C)n(-c3ccccc3)c2=O)c2c(C)n(C)n(-c3ccccc3)c2=O)c1O to CC(C)C[C@H](NC(=O)c1cc(-c2ccccc2)cc(-c2ccccc2)c1)C(=O)NCC#N, the “% Inhibition @ 10 uM” value rises from 1.04% to 1.71%.

First: O=C(Cc1cccs1)NCCc1ccccc1
Second: Cc1sc(NC(=O)CCc2ccccc2)c(C(=O)O)c1C
The “% Inhibition @ 10 uM” value of the first is higher: 0.219% for the first, -1.36% for the second.

Going from O=c1cccc2n1C[C@H]1C[C@@H]2CN(Cc2ccccc2)C1 to O=C(O)[C@@H]1CCCN1Cc1ccccc1, the “% Inhibition @ 10 uM” value rises from -0.13% to 0.503%.

Compared with COc1ccccc1-c1cc(/N=C(/NCc2ccco2)SC)[nH]n1, COc1ccc(-c2cc(-c3ccccc3)nc(OC)n2)cc1 is lower in “% Inhibition @ 10 uM” value: 2.73% for the first, -2.35% for the second.

First: O=C(CSCC(=O)Nc1ccc2ccccc2c1)NCC1CCCO1 (stereo not drawn)
Second: O=C(O)C#Cc1ccc2ccccc2c1
The “% Inhibition @ 10 uM” value of the first is lower: -0.725% for the first, 2.31% for the second.

Going from COc1cc(-c2[nH]nc3c2C(c2c(F)cccc2Cl)C(C#N)=C(N)O3)cc(OC)c1OC (stereo not drawn) to COc1cc(-c2nc(Cc3ccccc3Cl)no2)cc(OC)c1OC, the “% Inhibition @ 10 uM” value rises from 0.851% to 1.62%.

First: CN(CCCNC(=O)CCn1cnc2onc(-c3ccc(F)cc3)c2c1=O)Cc1ccccc1
Second: CCC[C@@H](NC(=O)OCc1ccccc1)C(=O)c1noc(C(=O)NCc2ccc(C)o2)n1
The “% Inhibition @ 10 uM” value of the first is lower: -2.15% for the first, 19.1% for the second.

Compared with CN(C)/C=C1/Sc2ccccc2C1=O, O=C1N=C(N2CCOCC2)S/C1=C/c1ccccc1 is higher in “% Inhibition @ 10 uM” value: -2.9% for the first, 4.39% for the second.

Going from O=C(CNC(=S)N(Cc1cccs1)C1CCCCC1)NCc1ccc(F)cc1 to O=C(NC1CCCCC1)c1nc[nH]c1C(=O)Nc1ccccc1, the “% Inhibition @ 10 uM” value falls from 1.27% to -14.1%.

Compared with CCCOc1ccccc1C(=O)Nc1nonc1-c1ccc(OCC)c(OCC)c1, CCOc1ccc(CNS(=O)(=O)c2ccc3oc(=O)c4ncn(C)c4c3c2)cc1OC is lower in “% Inhibition @ 10 uM” value: 3.51% for the first, -7.88% for the second.

Compared with CC(C)C[C@H](NC(=O)c1cc(N2CCOCC2)nc(N2CCOCC2)n1)C(=O)NCC#N, Cc1c(C(=O)N2CCOCC2)oc2c1-c1nn(CC(=O)NCC(C)c3ccccc3)cc1CC2 (stereo not drawn) is higher in “% Inhibition @ 10 uM” value: -3.48% for the first, 3.88% for the second.

Compared with O=C(/C=C/Nc1cccc2cccnc12)c1cccs1, Cc1ccccc1C(=O)Nc1ccccc1C#N is higher in “% Inhibition @ 10 uM” value: -1.06% for the first, 3.24% for the second.

Going from CCOC(=O)C1=CN(Cc2ccc(F)cc2)C=C(C(=O)OCC)C1c1ccccc1Br to Cc1ccc(S(=O)(=O)Cc2ccc(C(=O)NCc3ccccc3Cl)o2)cc1, the “% Inhibition @ 10 uM” value falls from -1.48% to -3.32%.

Going from COc1cc(/C=C2N=C(/C=C/c3ccc(Cl)cc3)OC/2=O)cc(OC)c1OC to COc1ccc(CCNC(=O)COc2cc(Cl)ccc2Cl)cc1OC, the “% Inhibition @ 10 uM” value falls from 2.77% to -6.06%.

First: O=C1N=C(N2CCOCC2)S/C1=C\c1ccccc1F
Second: Cc1ccc(-c2ccc(/C=C3\SC(N4CCOCC4)=NC3=O)o2)cc1
The “% Inhibition @ 10 uM” value of the first is higher: 19.5% for the first, 12.2% for the second.

First: CN(C)c1nc(N(C)C)nc(N(C#N)Cc2ccc(Cl)cc2)n1
Second: CN(C)CCCN(CCCN(C)C)Cc1ccc(F)c(F)c1
The “% Inhibition @ 10 uM” value of the first is higher: 2.57% for the first, 0.0792% for the second.

Going from O=C(Nc1ccc(Cl)cn1)c1cnn(-c2ccccc2)c1-n1cccc1 to NC(=O)c1ccccc1NC(=O)c1ccccc1C(=O)O, the “% Inhibition @ 10 uM” value falls from 2.58% to 2.13%.

Compared with COc1cccc(C(=O)c2cn(CC(N)=O)c3nc(C)ccc3c2=O)c1, COc1ccc(S(=O)(=O)c2c(SC)nn(Cc3cccc(F)c3)c2N)cc1 is lower in “% Inhibition @ 10 uM” value: -2.25% for the first, -2.48% for the second.

First: COc1ccc2nc(NC(=O)CCn3cnnn3)sc2c1
Second: COc1ccc(-c2cc(-c3nnc(N)o3)no2)cc1
The “% Inhibition @ 10 uM” value of the first is higher: -2.05% for the first, -3.53% for the second.

Compared with Cc1nn(C(C)C(=O)N2CC(C)CC(C)C2)c(=O)c2c1sc1ccccc12 (stereo not drawn), CCOC(=O)c1cc(-c2ccccc2)n(CCC(=O)N2CCCC(C)C2)c1C (stereo not drawn) is higher in “% Inhibition @ 10 uM” value: -1.81% for the first, 1.2% for the second.

Going from Clc1ccc(CN2CCC(N3CCCCC3)CC2)cc1 to CCc1ccc(-c2nc(CN3CCC(C(=O)N4CCN(c5ccccn5)CC4)CC3)c(C)o2)cc1, the “% Inhibition @ 10 uM” value rises from -2.21% to -1.05%.

Going from O=S(=O)(Nc1cccc(-c2cn3ccsc3n2)c1)c1ccc(F)cc1 to COc1cccc(C(CC(=O)O)NS(=O)(=O)c2ccc(F)cc2)c1OC (stereo not drawn), the “% Inhibition @ 10 uM” value falls from -0.366% to -5.64%.

Going from COc1cc(NC(=O)Cn2nc(C(F)(F)F)cc2C2CC2)c(C(C)=O)cc1OC to CCOC(=O)c1cnc2ccc(OCC)cc2c1N1CCCC(C)C1 (stereo not drawn), the “% Inhibition @ 10 uM” value falls from 2.08% to -0.631%.

Compared with CC1CCCN(c2c3c(nc4ccccc24)CCCC3)C1 (stereo not drawn), Cc1cccc(Nc2nc3c(s2)CCC3)c1 is higher in “% Inhibition @ 10 uM” value: 0.317% for the first, 12% for the second.

Compared with O=C1NC(=S)N(C2CCCCC2)C(c2ccccc2)C1c1ccccc1 (stereo not drawn), C[C@H]1Oc2ccccc2C(=O)C1C(=O)c1ccccc1 (stereo partly drawn) is higher in “% Inhibition @ 10 uM” value: 1.87% for the first, 2.36% for the second.

Going from Cc1nc2sc3c(c2c2nncn12)CCC3 to COc1ccc(-c2noc(N3CCC(C(=O)NCCCN4CCCC4=O)CC3)n2)cc1, the “% Inhibition @ 10 uM” value falls from 2.47% to 2.25%.

Going from CCOc1ccc(/C=C2\C(=O)C3CCN2CC3)cc1 to Cc1cc(Cl)ccc1NC(=O)COc1ccc(S(=O)(=O)NC2CCCC2)cc1, the “% Inhibition @ 10 uM” value rises from 2.44% to 2.5%.

First: O=C(Nc1nnc(S(=O)(=O)N2CCOCC2)s1)c1ccccc1Br
Second: O=C(c1cc2ccccc2s1)N1CCCCC1
The “% Inhibition @ 10 uM” value of the first is higher: -1.72% for the first, -2.6% for the second.

Going from Cc1nc(-c2ccccc2)c2c(O)cc(-c3ccccc3)nc2n1 to Nc1c(NCc2ccccc2)c2ccccc2sc1=O, the “% Inhibition @ 10 uM” value rises from -4.58% to 6.7%.

Going from CCN1CCN(CC(O)COc2c(C)cccc2C)CC1 (stereo not drawn) to Cc1ccccc1CN1CCN(c2ccc([N+](=O)[O-])cc2)CC1, the “% Inhibition @ 10 uM” value rises from -2.37% to -1.86%.

Going from CC(NC(=O)c1cccs1)C(c1cccs1)N1CCN(C)CC1 (stereo not drawn) to CC(NC(=O)CCCC(=O)NC(C)c1ccccc1)c1ccccc1 (stereo not drawn), the “% Inhibition @ 10 uM” value falls from 0.66% to -4.43%.

Compared with CC(C)(C)C1=CC(=O)C(=O)C(C(C)(C)C)=C1, COc1ccc(S(=O)(=O)N2CC(C)OC(C)C2)cc1 (stereo not drawn) is lower in “% Inhibition @ 10 uM” value: 1.84% for the first, -1.54% for the second.

Compared with Cc1c(CC(=O)NCc2ccc(Cl)cc2)c(=O)oc2c(C)c(O)ccc12, Cc1c(CNCc2ccc(OC(C)C)cc2)c(C(=O)O)c(C)n1Cc1cccc(Cl)c1 is lower in “% Inhibition @ 10 uM” value: 5.68% for the first, -0.23% for the second.

Going from Cc1ccc(C(C)C)c(OCC(O)CNC(C)C)c1 (stereo not drawn) to Cc1ccc2oc(Nc3nc(C)cc(C)n3)nc2c1, the “% Inhibition @ 10 uM” value falls from 3.82% to -5.71%.

Going from Cc1ccc(C2CC(=O)NC(SCCc3ccccc3)=C2C#N)cc1 (stereo not drawn) to O=C(C1=C(O)C(=O)N(CCCn2ccnc2)C1c1ccc(Cl)c(Cl)c1)c1cc2ccccc2o1 (stereo not drawn), the “% Inhibition @ 10 uM” value falls from 0.726% to -6.68%.

Going from COc1cccc(C(=O)NC2(C(F)(F)F)C(=O)Nc3c2c(=O)[nH]c(=O)n3-c2ccccc2)c1 (stereo not drawn) to COc1ccc(-c2c3c(=O)n(C)c(=O)n(C)c3cn2-c2ccc(Br)cc2)cc1, the “% Inhibition @ 10 uM” value falls from -1.28% to -5.85%.

Compared with O=C(O)C(Cc1ccccc1)n1cccc1 (stereo not drawn), CSC(SC)=C(C(=O)c1ccccc1)[n+]1ccccc1 is lower in “% Inhibition @ 10 uM” value: -2.17% for the first, -3.63% for the second.

Compared with COc1cccc(C2CC3=NC(C)=C(C(=O)OCCOC(C)C)C(c4ccc(C)s4)C3=C(O)C2)c1 (stereo not drawn), CO/C(O)=C1\C(C)=NC2=C(C(=O)CC(C)(C)C2)C1c1cccc(O)c1 (stereo not drawn) is lower in “% Inhibition @ 10 uM” value: 6.97% for the first, 5.7% for the second.

Compared with COCCN(CCOC)c1ncnc2c1c(-c1ccccc1)cn2-c1ccc(Cl)cc1, Cc1cc(C)cc(OCc2nc(-c3ccc(-n4cccc4)cc3)no2)c1 is lower in “% Inhibition @ 10 uM” value: 0.925% for the first, -0.828% for the second.

First: O=C(O)COc1ccc(Br)cc1/C=C1/SC(=O)N(CC(=O)N2CCCC2)C1=O
Second: CCC1CCCCN1C1CC(=O)N(c2ccc(Br)cc2)C1=O (stereo not drawn)
The “% Inhibition @ 10 uM” value of the first is lower: -1.98% for the first, 3.69% for the second.

First: CCn1nc(C(=O)Nc2ccccc2C)c(Cl)c1Cl
Second: CCOC(=O)c1sc(N2C(=O)c3oc4ccccc4c(=O)c3C2c2cccnc2)nc1C (stereo not drawn)
The “% Inhibition @ 10 uM” value of the first is lower: -6.92% for the first, 5.89% for the second.

Compared with CCC1CCC(C(=O)N2CCOCC2)CC1 (stereo not drawn), O=C(NC(=S)N1CCOCC1)C12CC3CC(CC(C3)C1)C2 is higher in “% Inhibition @ 10 uM” value: -5.31% for the first, 1.9% for the second.

Going from N#C[C@H](COC(=O)Nc1ccccc1)NC(=O)[C@H](CC1CCCCC1)NC(=O)OCc1ccccc1 to CCC[C@H](NC(=O)C(Cc1c(F)cccc1F)NC(=O)c1ccc(-c2ccccc2Cl)cc1)C(=O)c1nnc(C(C)(C)C)o1 (stereo partly drawn), the “% Inhibition @ 10 uM” value falls from 1.71% to -5.2%.

With COc1ccc(C2C(C#N)=C(N)Oc3cc(N)ccc32)c(OC)c1 (stereo not drawn) the “% Inhibition @ 10 uM” value was 4.6%.

— paper PMC6919601, “Identification of Plasmodium dipeptidyl aminopeptidase allosteric inhibitors by high throughput screening” (PLoS ONE, 2019)
